Measured values: PubChem BioAssay AID1963576 (National Center for Advancing Translational Sciences (NCATS), 2024)
Hit rate of the full screen: of about 46,000 compounds, about 60 (0.1%) were called active. Inconclusive results (about 3%) are left out. Calls come from the whole dose curve; as a rule, active = well fitted inhibition curve with a large enough effect; inconclusive = small, poorly fitted or top-dose-only effect; inactive = no such curve, though single readings can be large or run the other way. Some of the results follow.

assay: Primary qHTS assay for Inhibitors of ovarian cancer metastasis using an organotypic tumor microenvironment (TME) model.; note: nearly all actives have a fitted effect of over 65% in size;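 for activity change, negative = inhibition: plate controls were DMSO wells for no effect and tomatine positive control wells for full effect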; conditions: SKOV3ip1-GFP adhesion/invasion on 3D omental model, fluorescence; series mostly up to 45.8 µM; activity change, negative = inhibition: at the top concentration
Procedure, shortened: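 Primary human omental fibroblast/mesothelial 3D culture pre-formed 48 h. SKOV3ip1-GFP cells added with compounds (0.36-46 umol/L), incubated 2 h RT/16 h 37 C, fixed; GFP cells quantified at 488/509 nm.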

Activity change, negative = inhibition, inactive:
NCCc1cnc[nH]1 -23.8%
CCc1cccc(C)c1NC(=O)Cn1cc2c(n1)CCCC2 -0.908%
Cn1c(=O)c2c(-c3ccc(Br)cc3)n(CCc3ccccc3)cc2n(C)c1=O 43.4%
NS(=O)(=O)c1ccc(NC2=CC(=O)c3ccccc3C2=O)cc1 -12%
CCN(Cc1ccccc1)C(=O)CCc1c(C)nc2c(c(C)nn2-c2ccc(C)c(C)c2)c1C -1.32%
Cc1ccc(NC(=O)c2oc3ccc(S(=O)(=O)N4CCCCC4)cc3c2C)cc1Cl -11.1%
COc1ccc(C2CC(=O)N(CC(=O)Nc3cccc(C)c3C)c3ccccc3S2)cc1OC (stereo not given) 4.8%
Cc1ccc(C(=O)N2CCC(C(N)=O)CC2)cc1NC(=O)c1nsc2ccccc12 -7%
COc1ccc(CN2CCCN(CC(=O)Nc3ccc4c(c3)OCCO4)S2(=O)=O)cc1 -1.32%
Cc1nn(C)c2c1c(C(F)(F)F)cc(=O)n2CC(=O)N1CCC(C)CC1 1.4%
Cc1ccc(CSc2nc3cccnc3n2Cc2ccc(C(=O)NCCc3cccs3)cc2)cc1 -26.1%
CC1CCN(S(=O)(=O)c2cc(C(=O)N3CCN(c4ccccc4F)CC3)n(C)c2)CC1 28.2%
Cc1ccc(-c2noc(-c3nnn(CC(=O)Nc4cc(Cl)ccc4C)c3N)n2)cc1 2.39%
CCOC(=O)C1CCN(C(=O)c2nn(-c3ccc(OC)cc3)c(=O)c3c2c2ccccc2n3C)CC1 2.55%
COc1ccc(N(CC(=O)NCCc2ccc(Cl)cc2)S(=O)(=O)c2c(C)nn(C)c2C)cc1 46.5%
COc1ccc(CNC(=O)C(C)n2c(=O)cc(C)c3c(C)nn(-c4ccccc4)c32)cc1 (stereo not given) 2.8%
COc1ccc(NC(=O)c2oc3ccccc3c2NC(=O)Cc2cccs2)c(OC)c1 -0.659%
CCCCn1c(SCC(=O)NCc2ccc(C)cc2)nc2c(sc3ccccc32)c1=O 10.3%
CCC1CN(C(=O)C2CCN(S(=O)(=O)c3c(C)noc3/C=C/c3ccccc3F)CC2)c2cc(C)ccc2O1 (stereo not given) 10.1%
CC(=O)c1cccc(NC(=O)c2nc(-c3ccccc3)n(-c3ccccc3C)n2)c1 -1.07%
COc1ccc(C2c3cccn3CCN2S(=O)(=O)c2ccc([N+](=O)[O-])cc2)cc1 (stereo not given) -13.7%
CCN1CCN(Cc2c(O)ccc3cc(-c4ccc(OC)cc4)c(=O)oc23)CC1 6.69%
CCN1CCN(c2cc(C)c3cc(NC(=O)c4ccc(OC)c(OC)c4)ccc3n2)CC1 -0.0681%
Cc1nc2c(c(C)nn2-c2ccccc2)c(C)c1CCC(=O)NCc1ccccc1 -4.35%
NS(=O)(=O)c1cc2c(cc1Cl)NC(C(Cl)Cl)NS2(=O)=O (stereo not given) -1.61%
CCc1cccc(NC(=O)C2CCN(S(=O)(=O)c3cccc(-c4noc(C)n4)c3)CC2)c1 -8.06%
Cc1cc(C)c(NC(=O)Cn2c(=O)n(Cc3ccc(C(=O)NCc4ccco4)cc3)c(=O)c3sccc32)c(C)c1 -1.6%
Cc1ccn2cc(-c3ccc(C)c(NS(=O)(=O)c4ccc(Cl)cc4)c3)nc2c1 -3.87%
CN(C)CCNC(=O)c1ccc2c(c1)N(Cc1c(F)cccc1Cl)C(=O)c1ccccc1S2 -11.3%
CCOC(=O)Cn1c(=O)oc2cc(S(=O)(=O)N3CCN(c4cc(C)ccc4C)CC3)ccc21 16.4%
CCC(=O)N1CCc2cc(S(=O)(=O)NC(C(=O)Nc3cc(OC)cc(OC)c3)C(C)C)ccc21 (stereo not given) 2.21%
CCc1ccc(C(=O)NC2=NC(c3ccccc3F)CC(=O)N2)cc1 (stereo not given) -22.8%
Cn1cnc(S(=O)(=O)N2CCCC(C(=O)Nc3ccc(OC(F)(F)F)cc3)C2)c1 (stereo not given) 8.24%
O=C(Nc1ccccc1Br)N1CCC(CN2CCCC2)CC1 2.56%
Cc1ccc(OCC(=O)Nc2ccc(-c3nc4ccccc4o3)cc2)c(C)c1 1.29%
CCOc1ccc(CNC(=O)Cn2c(=O)c3cccn3c3ccccc32)cc1 -21.2%
Cc1c(Cl)ccc2sc(N3CCN(C(=O)CS(=O)(=O)c4ccccc4)CC3)nc12 -2.24%
COc1ccc(-c2cc(C(=O)Nc3cnn(Cc4ccc(F)cc4)c3)no2)cc1OC -0.123%
Cc1cc(F)ccc1NC(=O)c1c(C)oc2c1C1=NCCN1C=N2 5.21%
CCn1cc2nc(SCc3cccc(C(F)(F)F)c3)n(Cc3ccc(C)cc3)c(=O)c2n1 62.3%
COc1cc2c(cc1NC(=O)C(C)Oc1ccccc1)oc1ccccc12 (stereo not given) 11.5%
COc1ccccc1-n1c(=O)n(C)c2c(C(N)=O)nc(-c3cc(OC)c(OC)c(OC)c3)nc21 -5.24%
CCc1ccccc1NC(=O)CSc1nc2c(c(=O)[nH]1)CN(Cc1ccccc1OC)CC2 -5.8%
CN(C(=O)c1nn(C)c2c1CS(=O)(=O)c1ccccc1-2)c1cccc(Cl)c1 1.39%
Cc1ccc(C)c(Cn2c(=O)n(CCCC(=O)NCc3ccc4c(c3)OCO4)c(=O)c3sccc32)c1 -3.65%
CCC1CN(C(=O)Nc2cc(Cl)ccc2C(=O)OC)c2ccccc2S1 (stereo not given) 3.22%
COc1ccc(OC)c(NC(=O)COCc2cc(-c3ccc(F)cc3)on2)c1 7.31%
CCOC(=O)c1sc(N2C(=O)c3oc4ccc(F)cc4c(=O)c3C2c2ccc(O)cc2)nc1C (stereo not given) 2.3%

outcome, inactive:
COc1ccccc1CNC(=O)CCCn1c(=O)c2ccccc2n(Cc2ccc(C)cc2)c1=O
Cc1ccc(Sc2ccc(N3CCCC(C(=O)Nc4ccc(F)cc4F)C3)nn2)cc1 (stereo not given)
COCCN1CCN(Cc2ccc(C(=O)NC(C)C)cc2)C(=O)C1=O
Cc1ccc(S(=O)(=O)c2nc(-c3cccc(Cl)c3)oc2NCc2ccccc2)cc1
COC(=O)c1cc2oc3ccccc3c2n1CC(=O)Nc1ccc(C)cc1C
CCOC(=O)c1c(NC(=O)c2ccc(C)c(C)c2)sc2c1CCCCC2
CCCN1CCN(CCCNC(=O)c2c(C)nn(-c3ccc(F)cc3)c2-n2cccc2)CC1
O=C(Cc1c(C(=O)O)[nH]c2ccccc12)Nc1cccc(C(F)(F)F)c1
CCOc1ccc(OCC)c(NS(=O)(=O)c2ccc3c(c2)CCN3C(=O)C2CCC2)c1
Cc1cc(C)c2c(N)c(C(=O)Nc3ccccc3C(F)(F)F)sc2n1
CCCSc1ncc(Cl)c(C(=O)N2CCN(c3ccc(OC)cc3)CC2)n1
CCCOc1ccc(CNC(=O)c2cc3ccccn3n2)cc1
